According to patent US20240262814A1, “MODULATORS OF TREX1” (Constellation Pharmaceuticals, Inc., priority 2021, published 2024):
At least one read-out could not be matched to a standard name with certainty.

tested on: hTREX1 HCT116; assay: hTREX1 HCT116 Cell Assay (Lucia luciferase reporter, Type I interferon induction); type: cell-based, human; settings: HCT116 dual cells, 4h compound, then pBR322/BstNI DNA transfection, 48h
Excerpt: HCT116 dual cells (Invivogen, San Diego, CA, USA) are derived from the human HCT116 colorectal carcinoma cell line. Cells have been selected for the stable integration of SEAP and Luciferase reporter genes, which expression is under the control of 5 tandem response elements for NF-KB/AP1 and STAT1/STAT2, respectively. The cell line was used to monitor Type I interferon induction and subsequent signaling by measuring the activity of the Lucia luciferase secreted in the culture medium.
HCT116 cells were plated in 96-well plate(s) at 40,000 cells/well in 100 uL DMEM supplemented with 10% FBS and 25 mM Hepes (pH 7.2-7.5). After overnight settling, cells were treated with TREX1i for 4h (maximum DMSO fraction was 0.1%) before 1 ug/mL pBR322/BstNI restriction digest (New England Biolabs, Ipswich, MA, USA) was transfected with Lipofectamine LTX (ThermoFisher, Grand Island, NY, USA), according to product manual recommendations. Briefly, Lipofectamine LTX (0.35 uL/well) was diluted in OptiMEM (5 uL/well). pBR322/BstNI (100 ng/well) was diluted in OptiMEM (5 uL/well) before Plus reagent (0.1 uL/100 ng DNA) was added. After 5 min incubation at room temperature, the DNA mixture was mixed dropwise with the diluted Lipofectamine LTX. After an additional 10 min incubation, the transfection mix (10 uL/well) was added to the cells. Cells were maintained at 37 C for 48h before monitoring the Lucia Luciferase activity from the cell culture medium.

| SMILES | IC50 [nM] |
| --- | --- |
| C[C@H](c1nc(C(=O)Nc2cnoc2)c(O)c(=O)n1C)[C@H](c1ccccc1)c1ccccc1Cl (single isomer, unassigned) [Example 2 Isomer 1, 2-[1-(2-chlorophenyl)-1-phenylpropan-2-yl]-5-hydroxy-1-methyl-N-(1,2-oxazol-4-yl)-6-oxopyrimidine-4-carboxamide] | > 100 |
| C[C@H](c1nc(C(=O)Nc2cnoc2)c(O)c(=O)n1C)[C@H](c1ccccc1)c1ccccc1Cl (single isomer, unassigned) [Example 2 Isomer 2, 2-(1-(2-chlorophenyl)-1-phenylpropan-2-yl)-5-hydroxy-N-(isoxazol-4-yl)-1-methyl-6-oxo-1,6-dihydropyrimidine-4-carboxamide] | > 100 |
| C[C@H](c1nc(C(=O)Nc2cnoc2)c(O)c(=O)n1C)[C@H](c1ccccc1)c1ccccc1Cl (single isomer, unassigned) [Example 2 Isomer 3, 2-(1-(2-chlorophenyl)-1-phenylpropan-2-yl)-5-hydroxy-N-(isoxazol-4-yl)-1-methyl-6-oxo-1,6-dihydropyrimidine-4-carboxamide] | 10 to 100 |
| CC(c1nc(C(=O)Nc2cnoc2)c(O)c(=O)n1C)C(c1ccccc1)c1ccccc1C#N (single isomer, unassigned) [Example 3 Isomer 1] | 10 to 100 |
| CC(c1nc(C(=O)Nc2cnoc2)c(O)c(=O)n1C)C(c1ccccc1)c1ccccc1C#N (single isomer, unassigned) [Example 3 Isomer 3] | > 100 |
| CC(c1nc(C(=O)Nc2cnoc2)c(O)c(=O)n1C)C(c1ccccc1)c1ccccc1C#N (single isomer, unassigned) [Example 3 Isomer 4] | 10 to 100 |
| CC(c1nc(C(=O)Nc2cnoc2)c(O)c(=O)[nH]1)C(c1ccccc1C#N)c1ccccc1C#N (single isomer, unassigned) [Example 5 Isomer 1, 2-(1,1-bis(2-cyanophenyl)propan-2-yl)-5-hydroxy-N-(isoxazol-4-yl)-6-oxo-1,6-dihydropyrimidine-4-carboxamide] | < 10 |
| CC(c1nc(C(=O)Nc2cnoc2)c(O)c(=O)[nH]1)C(c1ccccc1C#N)c1ccccc1C#N (single isomer, unassigned) [Example 5 Isomer 2, 2-(1,1-bis(2-cyanophenyl)propan-2-yl)-5-hydroxy-N-(isoxazol-4-yl)-6-oxo-1,6-dihydropyrimidine-4-carboxamide] | > 100 |
| CC(c1nc(C(=O)Nc2cnoc2)c(O)c(=O)n1C)C(c1ccccc1)c1cc(F)ccc1C#N (single isomer, unassigned) [Example 6 Isomer 1] | > 100 |
| CC(c1nc(C(=O)Nc2cnoc2)c(O)c(=O)n1C)C(c1ccccc1)c1cc(F)ccc1C#N (single isomer, unassigned) [Example 6 Isomer 3] | > 100 |
| CC(c1nc(C(=O)Nc2cnoc2)c(O)c(=O)n1C)C(c1ccccc1)c1cc(F)ccc1C#N (single isomer, unassigned) [Example 6 Isomer 4] | 10 to 100 |
| CC(c1nc(C(=O)Nc2cnoc2)c(O)c(=O)n1C)C(c1ccccc1)c1ccc(F)cc1C#N (single isomer, unassigned) [Example 7 Isomer 1] | > 100 |
| CC(c1nc(C(=O)Nc2cnoc2)c(O)c(=O)n1C)C(c1ccccc1)c1ccc(F)cc1C#N (single isomer, unassigned) [Example 7 Isomer 4] | 10 to 100 |
| CC(c1nc(C(=O)Nc2cnoc2)c(O)c(=O)n1C)C(c1ccccc1)c1cc(Cl)ccc1C#N (single isomer, unassigned) [Example 8 Isomer 2] | 10 to 100 |
| CC(c1nc(C(=O)Nc2cnoc2)c(O)c(=O)n1C)C(c1ccccc1)c1cc(Cl)ccc1C#N (single isomer, unassigned) [Example 8 Isomer 3] | > 100 |
| CC(c1nc(C(=O)Nc2cnoc2)c(O)c(=O)n1C)C(c1ccccc1)c1cc(Cl)ccc1C#N (single isomer, unassigned) [Example 8 Isomer 4] | > 100 |
| CC(c1nc(C(=O)Nc2cnoc2)c(O)c(=O)n1C)C(c1ccccc1)c1ccc(Cl)cc1C#N (single isomer, unassigned) [Example 9 Isomer 1] | > 100 |
| CC(c1nc(C(=O)Nc2cnoc2)c(O)c(=O)n1C)C(c1ccccc1)c1ccc(Cl)cc1C#N (single isomer, unassigned) [Example 9 Isomer 2] | > 100 |

| SMILES | IC50 [nM] |
| --- | --- |
| CC(c1nc(C(=O)Nc2cnoc2)c(O)c(=O)n1C)C(c1ccccc1)c1ccc(Cl)cc1C#N (single isomer, unassigned) [Example 9 Isomer 4] | 10 to 100 |
| CC(c1nc(C(=O)Nc2cnoc2)c(O)c(=O)n1C)C(c1ccccc1Cl)c1ccccc1C#N (single isomer, unassigned) [Example 10 Isomer 1] | 10 to 100 |
| CC(c1nc(C(=O)Nc2cnoc2)c(O)c(=O)n1C)C(c1ccccc1Cl)c1ccccc1C#N (single isomer, unassigned) [Example 10 Isomer 2] | > 100 |
| CC(c1nc(C(=O)Nc2cnoc2)c(O)c(=O)n1C)C(c1ccccc1Cl)c1ccccc1C#N (single isomer, unassigned) [Example 10 Isomer 3] | > 100 |
| CC(c1nc(C(=O)Nc2cnoc2)c(O)c(=O)n1C)C(c1ccccc1Cl)c1ccccc1C#N (single isomer, unassigned) [Example 10 Isomer 4] | 10 to 100 |
| CC(c1nc(C(=O)Nc2cnoc2)c(O)c(=O)n1C)C(c1cc(F)cc(F)c1)c1ccccc1C#N (single isomer, unassigned) [Example 11 Isomer 2] | > 100 |
| CC(c1nc(C(=O)Nc2cnoc2)c(O)c(=O)n1C)C(c1cc(F)cc(F)c1)c1ccccc1C#N (single isomer, unassigned) [Example 11 Isomer 3] | < 10 |
| CC(c1nc(C(=O)Nc2cnoc2)c(O)c(=O)n1C)C(c1cc(F)cc(F)c1)c1ccccc1C#N (single isomer, unassigned) [Example 11 Isomer 4] | > 100 |
| CC(c1nc(C(=O)Nc2cnoc2)c(O)c(=O)n1C)C(c1ccc(F)c(F)c1)c1ccccc1C#N (single isomer, unassigned) [Example 12 Isomer 1] | > 100 |
| CC(c1nc(C(=O)Nc2cnoc2)c(O)c(=O)n1C)C(c1ccc(F)c(F)c1)c1ccccc1C#N (single isomer, unassigned) [Example 12 Isomer 3] | < 10 |
| CC(c1nc(C(=O)Nc2cnoc2)c(O)c(=O)n1C)C(c1ccc(F)c(F)c1)c1ccccc1C#N (single isomer, unassigned) [Example 12 Isomer 4] | > 100 |
| CC(c1nc(C(=O)Nc2cnoc2)c(O)c(=O)n1C)C(c1ccc(F)cc1F)c1ccccc1C#N (single isomer, unassigned) [Example 13 Isomer 1] | 10 to 100 |
| CC(c1nc(C(=O)Nc2cnoc2)c(O)c(=O)n1C)C(c1ccc(F)cc1F)c1ccccc1C#N (single isomer, unassigned) [Example 13 Isomer 2] | 10 to 100 |
| CC(c1nc(C(=O)Nc2cnoc2)c(O)c(=O)n1C)C(c1ccc(F)cc1F)c1ccccc1C#N (single isomer, unassigned) [Example 13 Isomer 3] | > 100 |
| C[C@H](c1nc(C(=O)Nc2cnoc2)c(O)c(=O)n1C)[C@H](c1ccccc1)c1ccccc1C(F)(F)F (single isomer, unassigned) [Example 14 Isomer 4, 5-Hydroxy-N-(isoxazol-4-yl)-1-methyl-6-oxo-2-(1-phenyl-1-(2-(trifluoromethyl)phenyl)propan-2-yl)-1,6-dihydropyrimidine-4-carboxamide] | > 100 |
| C[C@H](c1nc(C(=O)Nc2cnoc2)c(O)c(=O)n1C)[C@H](c1ccccc1)c1ccc(C(=O)N(C)C)cc1C#N (single isomer, unassigned) [Example 16 Isomer 1, 2-(1-(2-cyano-4-(dimethylcarbamoyl)phenyl)-1-phenylpropan-2-yl)-5-hydroxy-N-(isoxazol-4-yl)-1-methyl-6-oxo-1,6-dihydropyrimidine-4-carboxamide] | > 100 |
| C[C@H](c1nc(C(=O)Nc2cnoc2)c(O)c(=O)n1C)[C@H](c1ccccc1)c1ccc(C(=O)N(C)C)cc1C#N (single isomer, unassigned) [Example 16 Isomer 4, 2-(1-(2-cyano-4-(dimethylcarbamoyl)phenyl)-1-phenylpropan-2-yl)-5-hydroxy-N-(isoxazol-4-yl)-1-methyl-6-oxo-1,6-dihydropyrimidine-4-carboxamide] | 10 to 100 |
